According to PubChem BioAssay (NCATS):
The list shows a part of the results. These are further read-outs of the screen, such as a control signal, another cell line or another target. No call is given for them. For part of these data: Most of these compounds were active or inconclusive in the main read-out, so they are no random draw. Potencies come from curve fits of mixed quality, noted in brackets.

What was measured:
[1] = qHTS drug screen for cell cycle checkpoint inhibitors in PARPi-resistant BRCA-mutant ovarian cancer cell lines. (AID 1963452); conditions: PEO1/OlaR viability, CellTiter-Glo luminescence, 96 h
Procedure, shortened: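 PEO1, PEO4 and PEO1/OlaR ovarian cancer cells, 600 per well, exposed 96 h at 37C to a dilution series. Viability read by CellTiter-Glo luminescence, normalized to DMSO and empty wells; activity summarized as Z-AUC.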

[2] = qHTS for identification of novel therapeutic agents for treatment of microphthalmiaassociated transcription factor (MiT) renal cell carcinoma (RCC) (AID 1963991); conditions: TFE3-RCC viability, CellTiter-Glo, 48 h
Procedure, shortened: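 Three TFE3-fusion RCC lines (UOK109, UOK124, UOK145), 500 cells/well in complete medium, were treated with MIPE 4.0 compounds for 48 hours at 37 C. Viability was by CellTiter-Glo luminescence, normalized to DMSO (100%) and empty wells (0%); curves fitted over 11 concentrations.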

[3] = measured here: PEO1 parental viability
[4] = measured here: UOK124 cell viability
[5] = measured here: UOK145 cell viability
Tags give direction and shape of the fitted curve.

Row | SMILES | AC50 [1, 3] | AC50 ([1]; measured here: PEO4 viability) | AC50 [2, 4] | AC50 [2, 5]
1 | Oc1cccc(-c2nc(N3CCOCC3)c3oc4ncccc4c3n2)c1 | 0.11 µM [falling, full curve, poor fit] | 0.174 µM [falling, partial curve, poor fit] | 0.54 µM [falling, full curve] | 1.08 µM [falling, full curve]
2 | CC(C)c1cnn2c(NCc3ccccc3)cc(N[C@@H](CO)[C@H](O)CO)nc12 | 0.11 µM [falling, full curve] | 0.174 µM [falling, full curve] | 0.264 µM [falling, full curve] | 0.264 µM [falling, full curve]
3 | CC(C)n1nc(-c2ccc3oc(N)nc3c2)c2c(N)ncnc21 | 0.616 µM [falling, full curve] | 0.138 µM [falling, full curve] | 0.132 µM [falling, full curve] | 0.00418 µM [falling, full curve]
4 | COc1cc([C@@H]2c3cc4c(cc3[C@H](O)[C@H]3COC(=O)[C@@H]23)OCO4)cc(OC)c1OC | 0.549 µM [falling, full curve] | 0.309 µM [falling, full curve] | 0.166 µM [falling, full curve] | 0.0935 µM [falling, full curve]
5 | O=C(Cc1ccc(-c2ccc(OCCN3CCOCC3)cc2)cn1)NCc1ccccc1 | 0.0389 µM [falling, full curve, poor fit] | 0.0436 µM [falling, full curve] | 0.0296 µM [falling, full curve] | 0.0372 µM [falling, full curve]
6 | CC(C)c1cc(C(=O)N2Cc3ccc(CN4CCN(C)CC4)cc3C2)c(O)cc1O | 0.195 µM [falling, full curve] | 0.174 µM [falling, full curve, poor fit] | 0.148 µM [falling, full curve] | 0.59 µM [falling, full curve]
7 | Cc1ccc(C(=O)N(CCCN)[C@@H](c2oc3cc(Cl)ccc3c(=O)c2Cc2ccccc2)C(C)C)cc1 | 0.871 µM [falling, partial curve, poor fit] | 15.5 µM [falling, partial curve, poor fit] | 6.62 µM [falling, full curve] | 29.6 µM [falling, partial curve, poor fit]
8 | CN[C@H]1CCc2cc(OC)c(OC)c(OC)c2-c2ccc(OC)c(=O)cc21 | 0.219 µM [falling, full curve] | 0.174 µM [falling, full curve] | 0.00372 µM [falling, full curve] | 0.00118 µM [falling, full curve]
9 | Cc1nc2cnc3ccc(C#Cc4cccnc4)cc3c2n1-c1ccc(C(C)(C)C#N)cc1 | 1.1 µM [falling, full curve] | 0.549 µM [falling, full curve] | 0.0935 µM [falling, full curve, poor fit] | 0.148 µM [falling, full curve]
10 | CC(C)C[C@H](NC(=O)[C@H](CCc1ccccc1)NC(=O)CN1CCOCC1)C(=O)N[C@@H](Cc1ccccc1)C(=O)N[C@@H](CC(C)C)C(=O)[C@@]1(C)CO1 | 0.0087 µM [falling, full curve] | 0.0087 µM [falling, full curve] | 0.209 µM [falling, full curve] | 0.0662 µM [falling, full curve]
11 | COc1ccc(-c2cc3c(C)nc(N)nc3n(C3CCC(OCCO)CC3)c2=O)cn1 (stereo not drawn) | 0.776 µM [falling, full curve] | 0.436 µM [falling, full curve] | 0.118 µM [falling, full curve] | 0.0526 µM [falling, full curve]
12 | Cn1cc(CNCC2CCN(c3ncc(C(=O)NO)cn3)CC2)c2ccccc21 | 0.245 µM [falling, full curve] | 0.195 µM [falling, full curve] | 0.148 µM [falling, full curve] | 0.662 µM [falling, full curve]
